For the assay, the target named is Mammalian PARP, isolated from Hela cell nuclear extract (Homo sapiens, UniProt P09874). Briefly: PARP inhibition assay (FlashPlate, 3H-NAD) to determine IC50. Type of assay: biochemical. The following applies: NAD 5 μM, 30°C, 45 minutes, read-out: IC50 (the concentration at which 50% of the enzyme activity is inhibited). How it is done: In order to assess the inhibitory action of the compounds, the following assay was used to determine IC50 values (Dillon, et al., JBS., 8(3), 347-352 (2003)).
All compounds were diluted in DMSO and gave final assay concentrations of between 10 and 0.01 μM, with the DMSO being at a final concentration of 1% per well. The total assay volume per well was 40 μl.
After 10 minutes incubation at 30° C. the reactions were initiated by the addition of a 10 μl reaction mixture, containing NAD (5 μM), ^3H-NAD and 30mer double stranded DNA-oligos. Designated positive and negative reaction wells were done in combination with compound wells (unknowns) in order to calculate % enzyme activities. The plates were then shaken for 2 minutes and incubated at 30° C. for 45 minutes.
Following the incubation, the reactions were quenched by the addition of 50 μl 30% acetic acid to each well. The plates were then shaken for 1 hour at room temperature.
The plates were transferred to a TopCount NXT (TRADE MARK) (Packard, UK) for scintillation counting. Values recorded are counts per minute (cpm) following a 30 second counting of each well.
The % enzyme activity for each compound is then calculated using the following equation: […]
IC50 values (the concentration at which 50% of the enzyme activity is inhibited) were calculated, which are determined over a range of different concentrations, normally from 10 μM down to 0.001 μM. Such IC50 values are used as comparative values to identify increased compound potencies.

Sequence of UniProt P09874 (P09874 whole entry): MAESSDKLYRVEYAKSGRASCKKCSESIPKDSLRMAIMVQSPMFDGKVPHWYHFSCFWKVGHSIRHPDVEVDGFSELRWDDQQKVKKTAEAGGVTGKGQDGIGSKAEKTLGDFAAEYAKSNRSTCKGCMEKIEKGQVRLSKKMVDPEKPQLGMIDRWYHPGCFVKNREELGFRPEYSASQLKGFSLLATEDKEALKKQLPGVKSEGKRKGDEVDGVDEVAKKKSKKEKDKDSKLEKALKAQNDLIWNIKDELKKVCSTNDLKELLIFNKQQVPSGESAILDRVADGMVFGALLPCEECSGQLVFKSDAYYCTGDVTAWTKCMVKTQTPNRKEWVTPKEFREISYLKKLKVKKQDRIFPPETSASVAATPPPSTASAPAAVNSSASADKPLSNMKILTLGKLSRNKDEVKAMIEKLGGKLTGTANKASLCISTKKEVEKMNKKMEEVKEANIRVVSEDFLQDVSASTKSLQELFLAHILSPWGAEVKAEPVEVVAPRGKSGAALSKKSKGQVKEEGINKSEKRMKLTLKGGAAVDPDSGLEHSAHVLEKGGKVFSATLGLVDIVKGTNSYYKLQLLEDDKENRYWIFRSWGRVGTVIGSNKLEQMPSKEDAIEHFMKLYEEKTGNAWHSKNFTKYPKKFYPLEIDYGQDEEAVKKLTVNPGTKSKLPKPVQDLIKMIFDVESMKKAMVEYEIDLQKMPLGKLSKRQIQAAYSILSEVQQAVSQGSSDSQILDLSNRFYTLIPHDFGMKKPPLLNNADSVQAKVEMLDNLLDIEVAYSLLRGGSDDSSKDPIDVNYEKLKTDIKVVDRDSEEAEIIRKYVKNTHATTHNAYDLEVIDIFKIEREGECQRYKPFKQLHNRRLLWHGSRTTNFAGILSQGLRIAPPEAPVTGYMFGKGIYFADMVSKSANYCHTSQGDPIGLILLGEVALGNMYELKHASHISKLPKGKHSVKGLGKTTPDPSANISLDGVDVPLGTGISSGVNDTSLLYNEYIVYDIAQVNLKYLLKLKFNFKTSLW

For the compound `CC1NC(=O)N(c2cccc(Cc3n[nH]c(=O)c4ccccc34)c2)C1=O` (centres unmarked) [Compound 9a], the IC50 is below 0.01 µM. With `O=C1CNC(=O)N1c1cccc(Cc2n[nH]c(=O)c3ccccc23)c1` [Compound 9c], the IC50 is below 0.01 µM. Consider `CC(C)(C)OC(=O)CN1C(=O)N(c2cc(Cc3n[nH]c(=O)c4ccccc34)ccc2F)C(=O)C1(C)C` [Compound 35B], for which the IC50 was below 0.01 µM. Under `CC1(C)C(=O)N(c2cc(Cc3n[nH]c(=O)c4ccccc34)ccc2F)C(=O)N1CC(=O)N1CCOCC1` [Compound 37Ba] stands below 0.01 µM; under `CC1(C)C(=O)N(c2cc(Cc3n[nH]c(=O)c4ccccc34)ccc2F)C(=O)N1CC(=O)N1CCC(O)CC1` [Compound 37Bb], below 0.01 µM.

On to `CN1CCN(C(=O)CN2C(=O)N(c3cc(Cc4n[nH]c(=O)c5ccccc45)ccc3F)C(=O)C2(C)C)CC1` [Compound 37Bi], for which the IC50 was below 0.01 µM. For `CC1(C)C(=O)N(c2cc(Cc3n[nH]c(=O)c4ccccc34)ccc2F)C(=O)N1CC(=O)N1CCC(N2CCOCC2)CC1` [Compound 37Bl] the value was below 0.01 µM; for `COC(=O)CN1C(=O)N(c2cc(Cc3n[nH]c(=O)c4ccccc34)ccc2F)C(=O)C1C` (centres unmarked) [Compound 39, {3-[2-Fluoro-5-(4-oxo-3,4-dihydro-phthalazin-1-ylmethyl)-phenyl]-5-methyl-2,4-dioxo-imidazolidin-1-yl}-acetic acid methyl ester], below 0.01 µM; for `CC1C(=O)N(c2cc(Cc3n[nH]c(=O)c4ccccc34)ccc2F)C(=O)N1CC(N)=O` (centres unmarked) [Compound 40a, 2-{3-[2-Fluoro-5-(4-oxo-3,4-dihydro-phthalazin-1-ylmethyl)-phenyl]-5-methyl-2,4-dioxo-imidazolidin-1-yl}-acetamide], below 0.01 µM. For `CC1CN(C(=O)CC2NC(=O)N(c3cc(Cc4n[nH]c(=O)c5ccccc45)ccc3F)C2=O)CC(C)O1` (centres unmarked) [Compound 43a] the value was below 0.01 µM; for `COCCN1CCN(C(=O)CC2NC(=O)N(c3cc(Cc4n[nH]c(=O)c5ccccc45)ccc3F)C2=O)CC1` (centres unmarked) [Compound 43c], below 0.01 µM.

As for `CN1CCN(C(=O)CC2NC(=O)N(c3cc(Cc4n[nH]c(=O)c5ccccc45)ccc3F)C2=O)CC1` (centres unmarked) [Compound 43d], the IC50 is below 0.01 µM. Under `O=C(CC1NC(=O)N(c2cc(Cc3n[nH]c(=O)c4ccccc34)ccc2F)C1=O)N1CCCN(CCO)CC1` (centres unmarked) [Compound 43f] stands below 0.01 µM. Under `O=C(CC1NC(=O)N(c2cc(Cc3n[nH]c(=O)c4ccccc34)ccc2F)C1=O)N1CCC(N2CCOCC2)CC1` (centres unmarked) [Compound 43g] stands below 0.01 µM.
